Our source for the binding signal values is publication PMC7819943, “Rice protein-binding microarrays: a tool to detect cis-acting elements near promoter regions in rice”.

The other results are listed elsewhere or left out.

The target of this experiment is T1, OsWOX13 (Oryza sativa, UniProt Q5QMM3 1-267).
T1 sequence: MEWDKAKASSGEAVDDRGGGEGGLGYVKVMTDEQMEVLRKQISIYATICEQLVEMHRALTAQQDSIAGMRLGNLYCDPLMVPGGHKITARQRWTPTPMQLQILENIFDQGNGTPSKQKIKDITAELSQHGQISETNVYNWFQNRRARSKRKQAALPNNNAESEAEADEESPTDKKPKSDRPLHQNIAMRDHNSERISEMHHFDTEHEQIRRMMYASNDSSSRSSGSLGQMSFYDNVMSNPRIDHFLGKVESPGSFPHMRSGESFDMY
Briefly: protein-binding microarray (RPBM); PBS, 2% BSA, 51.3 ng/ul salmon testes DNA, 50 uM zinc acetate, 200 nM TF, 25 C, 1 h; high values mean tight binding. The settings on record: protein: recombinant; tags: N-terminal polyhistidine and DsRed monomer fusion (pET32a); label: CyDye5-dUTP incorporated in the synthesized complementary strand; 3' TTTTT single-stranded linker to array surface; dsDNA, one strand shown. In short, it runs like this: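 Using Ni–NTA, transcription factors fused N-terminally to polyhistidine and DsRed were purified after expression in E. coli BL21-CodonPlus. These were incubated at 200 nM with a blocked, double-stranded custom Agilent array for 1 h at 25 °C in a buffer containing 50 µM zinc acetate, and the array was washed. The binding signal is per-feature fluorescence intensity (arbitrary units) on an Axon 4000B scanner.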
Take “TACTTCTTCCCTAATTAGAGTCCAAAAGCTGATAAGGCACCGGAGTCACCTAGTGCAG”: the binding signal was 3390 fluorescence intensity (a.u.). “ATCTAAATTTTATAACATAATCATAGATCCAATCCAAATCCGGAGTCACCTAGTGCAG”: the binding signal is 16400 fluorescence intensity (a.u.). For the sequence “TAAAACTCAATTAGTTACACGTTATTATTACCTCACTTGGCGGAGTCACCTAGTGCAG”, the binding signal is 8990 fluorescence intensity (a.u.). Next, “AATAATGTAAAATTTTAGTATCATATCTCTATCTCTACTACGGAGTCACCTAGTGCAG”: 7000 fluorescence intensity (a.u.); “ATGACTAAACATTAACTCTCAAAATTAGCTCTGGGCTAATCGGAGTCACCTAGTGCAG”: 8450 fluorescence intensity (a.u.). Consider “GAGTTGACGGGGACGAGATTGGCGGATTTGGGGATGCGGCCGGAGTCACCTAGTGCAG”, for which the binding signal was 24100 fluorescence intensity (a.u.). In the case of “TCCAAAATTGGGCGTCTTGACAAGTTCATTGAACGTGTAACGGAGTCACCTAGTGCAG” it was 5560 fluorescence intensity (a.u.); in that of “ATATCCTATAGATAGATTGAAATTGTAGGGAAAATTGTGACGGAGTCACCTAGTGCAG”, 8140 fluorescence intensity (a.u.); in that of “GGCACCAATGATTGTATCTGGTTAGTGGAGTAATTGAGACCGGAGTCACCTAGTGCAG”, 17800 fluorescence intensity (a.u.).

Turning to “CATGCGTGATTTATTTAACTGAAAAGAAATCTAAAGGCACCGGAGTCACCTAGTGCAG”, the binding signal was 44700 fluorescence intensity (a.u.).

As for “AGTAGATTTTGACATGCTGTGTGTTAACAATGGGAGTAGACGGAGTCACCTAGTGCAG”, the binding signal is 3550 fluorescence intensity (a.u.). As to “CCTCGCATTCATTCCAATTAGTGATCTTGAGGGGCTCCATCGGAGTCACCTAGTGCAG”, the binding signal is 5820 fluorescence intensity (a.u.).

“AGCTTGACAGGAGGCTGTCCGGTGTGGAGGGGTTGGACCACGGAGTCACCTAGTGCAG”: the binding signal is 9160 fluorescence intensity (a.u.). Next, “GAAAACAAGGAGATTGAAGTTTAGAGTTGAGGGAAAGAACCGGAGTCACCTAGTGCAG”: 4270 fluorescence intensity (a.u.); “ATCAATCTCTTTAATTTCCTCCATCTTTCTTCTAAACCCACGGAGTCACCTAGTGCAG”: 3420 fluorescence intensity (a.u.); “AAATATATGTTCAATTAACAAGCAAGTCAATTCGTGACATCGGAGTCACCTAGTGCAG”: 4070 fluorescence intensity (a.u.).

For “TCCACCAATCAGACCGGTGGTAATCGAGAGTTCAGACCAGCGGAGTCACCTAGTGCAG”, the binding signal was 19700 fluorescence intensity (a.u.). In the case of “GCTAAATACAAATTTGTTGCCACGGTTATTTATGGTGTGGCGGAGTCACCTAGTGCAG” it was 11000 fluorescence intensity (a.u.); in that of “AGGGATCAATGATCAATCTAAACCTACCGTGGGATCGACGCGGAGTCACCTAGTGCAG”, 7430 fluorescence intensity (a.u.); in that of “GTATCAATTAGGTCTACACGACAGGCGATATTGTTTGGTTCGGAGTCACCTAGTGCAG”, 10300 fluorescence intensity (a.u.).

Consider “CTCATGATTGGTATCATTAGATTTTGCGTAATCCATTTGACGGAGTCACCTAGTGCAG”, for which the binding signal is 40000 fluorescence intensity (a.u.).

Take “TTAATTTTCGTGGTTAATTAGCACCCAAGTAGCTAGGTAGCGGAGTCACCTAGTGCAG”: the binding signal is 17300 fluorescence intensity (a.u.). As for “GTTCCAATTTCAATCAAATTTTCAATTTTGGCGTGAACTACGGAGTCACCTAGTGCAG”, the binding signal was 35200 fluorescence intensity (a.u.). Regarding “GTACAAGTCACGTTTAAATTAATTATGATGATCTATTAGTCGGAGTCACCTAGTGCAG”, the binding signal was 20000 fluorescence intensity (a.u.). As to “GAGAGCTTAATTATCACCGATGTCCCATGCATCGATCTGCCGGAGTCACCTAGTGCAG”, the binding signal was 7950 fluorescence intensity (a.u.). With “AAAAGAATTAATTGTATTAGATTAATTAAACCCTACAAAGCGGAGTCACCTAGTGCAG”, the binding signal was 34900 fluorescence intensity (a.u.). For “TAAAAGATTTGTATCACAAATTAGTCGCAATTTGTATAATCGGAGTCACCTAGTGCAG”, the binding signal was 9610 fluorescence intensity (a.u.). Take “TTATTAATTGAATATATTTTCATAATAAATTGTCTGGGGTCGGAGTCACCTAGTGCAG”: the binding signal is 51800 fluorescence intensity (a.u.).

Consider “GATTGTCTTGATTTGTTTTACTAGGAGGGTTCACATTTCCCGGAGTCACCTAGTGCAG”, for which the binding signal is 6660 fluorescence intensity (a.u.). As for “TATTAAGTCTAATTAATCCATGATTAGCCTATGTGATGCTCGGAGTCACCTAGTGCAG”, the binding signal was 15300 fluorescence intensity (a.u.). In the case of “ATAATTTGCTAATACTTAATTAATCACGTGTTAATGGATCCGGAGTCACCTAGTGCAG”, the binding signal is 36600 fluorescence intensity (a.u.). For “CATGGTGACAACATCAATCGACTGATCAGCAAGCACAGGCCGGAGTCACCTAGTGCAG”, the binding signal is 4140 fluorescence intensity (a.u.).

Consider “GGAAAAGATTGGCCGCGAGCCGATTCTTGATGGCATTGTGCGGAGTCACCTAGTGCAG”, for which the binding signal is 6150 fluorescence intensity (a.u.). Take “AGTAGCAGTAATTACTCTTGAGAGACAGAGTATCCAAAGGCGGAGTCACCTAGTGCAG”: the binding signal is 4820 fluorescence intensity (a.u.). For “ATCCCCATTATATAGTTAATATTCGGTTGATTATTATCTCCGGAGTCACCTAGTGCAG”, the binding signal is 7310 fluorescence intensity (a.u.). In the case of “AAAATGGGCTAATTACCATCTTACCCTTCTTCCTCCTCTCCGGAGTCACCTAGTGCAG” it was 6740 fluorescence intensity (a.u.). “TGCCTTGTCATTCATGGTAATGATTGTGTGAATGATGAACCGGAGTCACCTAGTGCAG”: the binding signal was 9130 fluorescence intensity (a.u.).

Turning to “TTGATTAGTACACTATGGAGATCAACGTTATGACTAAAGTCGGAGTCACCTAGTGCAG”, the binding signal is 23600 fluorescence intensity (a.u.). Take “CTGCAACAGCAATTTATCAATCATGAATCAGGAATCGATGCGGAGTCACCTAGTGCAG”: the binding signal is 17400 fluorescence intensity (a.u.). For “GGTGAAACTGCTGATTGTAGTTAAGTGGGATCAGGTATTCCGGAGTCACCTAGTGCAG”, the binding signal is 11200 fluorescence intensity (a.u.). “GAGCTCAGCTTGCAGGGAGCTTGGGTGTGTGATCATACACCGGAGTCACCTAGTGCAG”: the binding signal is 63900 fluorescence intensity (a.u.). With “TTTACAATTGGCTAATTCATATTATTGTTGTTAAAAGATTCGGAGTCACCTAGTGCAG”, the binding signal was 3180 fluorescence intensity (a.u.).
